In a compilation of properties of binary mixtures (doi:10.1016/j.fluid.2022.113414):
Some of these densities may be calculated back from excess volumes.

Assay: xn = mol fraction of the nth substance listed
Settings: 101.3 kPa

CC(=O)[O-].CN1CCCN2CCC[NH+]=C12 + O
mass density [kg/m3]
Settings | x1 = 0.103 | x1 = 0.206 | x1 = 0.301 | x1 = 0.405 | x1 = 0.494 | x1 = 0.604
278.2 K | 1120.3 | 1154.2 | 1165.7 | – | 1170.8 | 1171
283.2 K | – | – | 1162.1 | 1165.6 | – | 1167.4
288.2 K | 1113.6 | 1147.1 | 1158.8 | 1162.2 | 1163.5 | 1163.9
293.2 K | 1110 | 1143.5 | 1155.1 | – | 1160 | 1160.5
298.2 K | 1106.6 | 1139.9 | – | 1155.4 | – | 1157
303.2 K | 1103.4 | 1136.3 | – | 1152 | 1153.2 | –
308.2 K | 1099.9 | – | – | 1148.5 | 1149.7 | 1149.9
313.2 K | 1096.4 | 1128.8 | – | 1145 | – | 1146.4
318.2 K | 1092.6 | 1125.3 | – | 1141.5 | – | 1142.9
323.2 K | 1089.3 | 1121.6 | 1134.1 | 1137.8 | 1138.8 | –
328.2 K | 1085.7 | 1117.9 | 1130.5 | 1134.2 | 1135.5 | 1135.8
333.2 K | 1082.1 | – | 1126.9 | 1130.9 | 1131.6 | 1132.2
338.2 K | 1078.4 | 1110.3 | 1123.3 | 1127.1 | – | 1128.6
343.2 K | – | 1106.8 | 1119.6 | 1123.7 | 1124.4 | 1125
348.2 K | 1071 | 1103.1 | 1116 | 1120.1 | 1121.1 | 1121.4
353.2 K | 1067 | 1099.1 | – | 1116.5 | 1117.2 | 1117.8
358.2 K | – | – | 1108.6 | 1112.8 | 1113.5 | –
363.2 K | 1059.4 | 1091.5 | 1104.8 | 1109.2 | 1110.1 | –
368.2 K | – | 1087.9 | 1101.1 | 1105.5 | 1106.2 | –
373.2 K | – | 1083.8 | – | 1101.8 | 1102.7 | –
